According to article PMC12820563, “FoxP3 forms a head-to-head dimer in vivo and stabilizes its multimerization on adjacent microsatellites”:
The list shows a part of the results.

biological target: T1, MBP-FoxP1dN (Mus musculus, UniProt P58462 326-579); test: PD-seq (MBP pull-down with sequencing); 20 mM Tris-HCl pH 7.5, 100 mM NaCl, 1.5 mM MgCl2, 0.4 uM protein, 0.1 uM dsDNA library, 30 min, room temperature, amylose pull-down; high values mean tight binding; settings: protein: recombinant; tags: His6-MBP; chain copies: 2; dsDNA, one strand shown
T1 sequence: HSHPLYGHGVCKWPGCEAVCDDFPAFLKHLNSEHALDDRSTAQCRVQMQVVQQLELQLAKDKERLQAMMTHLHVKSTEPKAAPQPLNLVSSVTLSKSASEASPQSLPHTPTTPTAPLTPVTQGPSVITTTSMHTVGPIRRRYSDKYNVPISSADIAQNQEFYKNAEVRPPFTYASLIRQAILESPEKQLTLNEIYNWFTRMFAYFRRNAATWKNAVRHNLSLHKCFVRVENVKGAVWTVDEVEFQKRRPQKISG
Method in brief: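 His6-MBP-tagged mouse FoxP3 or FoxP1 fragment lacking the N-terminus, expressed in E. coli, was mixed at 0.4 µM with 0.1 µM Klenow-filled double-stranded degenerate DNA library. Incubation was 30 min at room temperature in Tris pH 7.5 buffer with NaCl and MgCl2. Complexes were caught on amylose resin and washed three times; DNA was released with proteinase K, PCR-barcoded and Illumina-sequenced. Binding is reads-per-million enrichment, pull-down over input, with replicates pooled.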

| Sequence | binding signal |
| --- | --- |
| GATGATTGTTCTCCCAGCTGATGAATTCCCTAATTCGAGTAAACAAATTTTCCTAATCTTTCTGTTCAAGCGCCATCTAC | 0.927 RPM ratio (pull-down/input) |
| GATGATTGTTCTCCCAGCTGATGAATTGCTAATCTCGAGTAAACAAATTTTCCTAATCTTTCTGTTCAAGCGCCATCTAC | 1.11 RPM ratio (pull-down/input) |
| GATGATTGTTCTCCCAGCTGATGAATTTCTACAATCGAGTAAACAAATTTTCCTAATCTTTCTGTTCAAGCGCCATCTAC | 1.18 RPM ratio (pull-down/input) |
| GATGATTGTTCTCCCAGCTGATGAATTGTATTGTTCGAGTAAACAAATTTTCCTAATCTTTCTGTTCAAGCGCCATCTAC | 2.26 RPM ratio (pull-down/input) |
| GATGATTGTTCTCCCAGCTGATGAATTACGTGTCTCGAGTAAACAAATTTTCCTAATCTTTCTGTTCAAGCGCCATCTAC | 1.01 RPM ratio (pull-down/input) |
| GATGATTGTTCTCCCAGCTGATGAATTCATTCACTCGAGTAAACAAATTTTCCTAATCTTTCTGTTCAAGCGCCATCTAC | 0.891 RPM ratio (pull-down/input) |
| GATGATTGTTCTCCCAGCTGATGAATTTGATGGGTCGAGTAAACAAATTTTCCTAATCTTTCTGTTCAAGCGCCATCTAC | 0.768 RPM ratio (pull-down/input) |
| GATGATTGTTCTCCCAGCTGATGAATTCAAAATGTCGAGTAAACAAATTTTCCTAATCTTTCTGTTCAAGCGCCATCTAC | 0.941 RPM ratio (pull-down/input) |
| GATGATTGTTCTCCCAGCTGATGAATTTGTGATCTCGAGTAAACAAATTTTCCTAATCTTTCTGTTCAAGCGCCATCTAC | 1.08 RPM ratio (pull-down/input) |
| GATGATTGTTCTCCCAGCTGATGAATTCTGCACGTCGAGTAAACAAATTTTCCTAATCTTTCTGTTCAAGCGCCATCTAC | 0.899 RPM ratio (pull-down/input) |
| GATGATTGTTCTCCCAGCTGATGAATTAATTCTCTCGAGTAAACAAATTTTCCTAATCTTTCTGTTCAAGCGCCATCTAC | 0.881 RPM ratio (pull-down/input) |
| GATGATTGTTCTCCCAGCTGATGAATTCAAATCTTCGAGTAAACAAATTTTCCTAATCTTTCTGTTCAAGCGCCATCTAC | 0.864 RPM ratio (pull-down/input) |
| GATGATTGTTCTCCCAGCTGATGAATTGCTATGATCGAGTAAACAAATTTTCCTAATCTTTCTGTTCAAGCGCCATCTAC | 1.06 RPM ratio (pull-down/input) |
| GATGATTGTTCTCCCAGCTGATGAATTGTTCTAGTCGAGTAAACAAATTTTCCTAATCTTTCTGTTCAAGCGCCATCTAC | 1.19 RPM ratio (pull-down/input) |
| GATGATTGTTCTCCCAGCTGATGAATTGTGCAGGTCGAGTAAACAAATTTTCCTAATCTTTCTGTTCAAGCGCCATCTAC | 0.921 RPM ratio (pull-down/input) |
| GATGATTGTTCTCCCAGCTGATGAATTGTAATATTCGAGTAAACAAATTTTCCTAATCTTTCTGTTCAAGCGCCATCTAC | 1.19 RPM ratio (pull-down/input) |

| Sequence | binding signal |
| --- | --- |
| GATGATTGTTCTCCCAGCTGATGAATTCCTTCTATCGAGTAAACAAATTTTCCTAATCTTTCTGTTCAAGCGCCATCTAC | 0.862 RPM ratio (pull-down/input) |
| GATGATTGTTCTCCCAGCTGATGAATTGCGCAAGTCGAGTAAACAAATTTTCCTAATCTTTCTGTTCAAGCGCCATCTAC | 1.08 RPM ratio (pull-down/input) |
| GATGATTGTTCTCCCAGCTGATGAATTCCACGGTTCGAGTAAACAAATTTTCCTAATCTTTCTGTTCAAGCGCCATCTAC | 0.845 RPM ratio (pull-down/input) |
| GATGATTGTTCTCCCAGCTGATGAATTTAATGCCTCGAGTAAACAAATTTTCCTAATCTTTCTGTTCAAGCGCCATCTAC | 1.04 RPM ratio (pull-down/input) |
| GATGATTGTTCTCCCAGCTGATGAATTCGATGAATCGAGTAAACAAATTTTCCTAATCTTTCTGTTCAAGCGCCATCTAC | 0.911 RPM ratio (pull-down/input) |
| GATGATTGTTCTCCCAGCTGATGAATTCCCTTAGTCGAGTAAACAAATTTTCCTAATCTTTCTGTTCAAGCGCCATCTAC | 0.813 RPM ratio (pull-down/input) |
| GATGATTGTTCTCCCAGCTGATGAATTTTTCGTCTCGAGTAAACAAATTTTCCTAATCTTTCTGTTCAAGCGCCATCTAC | 0.888 RPM ratio (pull-down/input) |
| GATGATTGTTCTCCCAGCTGATGAATTGTTAGTGTCGAGTAAACAAATTTTCCTAATCTTTCTGTTCAAGCGCCATCTAC | 1.64 RPM ratio (pull-down/input) |
| GATGATTGTTCTCCCAGCTGATGAATTGCTGCAATCGAGTAAACAAATTTTCCTAATCTTTCTGTTCAAGCGCCATCTAC | 1.32 RPM ratio (pull-down/input) |
| GATGATTGTTCTCCCAGCTGATGAATTTGCCAAGTCGAGTAAACAAATTTTCCTAATCTTTCTGTTCAAGCGCCATCTAC | 0.82 RPM ratio (pull-down/input) |
| GATGATTGTTCTCCCAGCTGATGAATTCCACCTTTCGAGTAAACAAATTTTCCTAATCTTTCTGTTCAAGCGCCATCTAC | 0.856 RPM ratio (pull-down/input) |
| GATGATTGTTCTCCCAGCTGATGAATTTGAGTGCTCGAGTAAACAAATTTTCCTAATCTTTCTGTTCAAGCGCCATCTAC | 0.789 RPM ratio (pull-down/input) |
| GATGATTGTTCTCCCAGCTGATGAATTTTTCTCATCGAGTAAACAAATTTTCCTAATCTTTCTGTTCAAGCGCCATCTAC | 1.03 RPM ratio (pull-down/input) |
| GATGATTGTTCTCCCAGCTGATGAATTTTGCCGCTCGAGTAAACAAATTTTCCTAATCTTTCTGTTCAAGCGCCATCTAC | 0.839 RPM ratio (pull-down/input) |
| GATGATTGTTCTCCCAGCTGATGAATTCGAGTATTCGAGTAAACAAATTTTCCTAATCTTTCTGTTCAAGCGCCATCTAC | 0.938 RPM ratio (pull-down/input) |
